Measurements published in article PMC12831459.
Results are given in words; binding and its absence hold for the method and conditions named. Binding seen in cells or lysates may run through a third protein. Some results given as binding are weak or reduced against the parent protein; the word gives no strength. For some of these results: Where a sequence is shown, tags or fusion partners need not be part of it.

Amino acid sequences for entries named in this document (tags omitted). A change or cut given only in a name is not applied to a line headed by its entry.
UniProt Q13485: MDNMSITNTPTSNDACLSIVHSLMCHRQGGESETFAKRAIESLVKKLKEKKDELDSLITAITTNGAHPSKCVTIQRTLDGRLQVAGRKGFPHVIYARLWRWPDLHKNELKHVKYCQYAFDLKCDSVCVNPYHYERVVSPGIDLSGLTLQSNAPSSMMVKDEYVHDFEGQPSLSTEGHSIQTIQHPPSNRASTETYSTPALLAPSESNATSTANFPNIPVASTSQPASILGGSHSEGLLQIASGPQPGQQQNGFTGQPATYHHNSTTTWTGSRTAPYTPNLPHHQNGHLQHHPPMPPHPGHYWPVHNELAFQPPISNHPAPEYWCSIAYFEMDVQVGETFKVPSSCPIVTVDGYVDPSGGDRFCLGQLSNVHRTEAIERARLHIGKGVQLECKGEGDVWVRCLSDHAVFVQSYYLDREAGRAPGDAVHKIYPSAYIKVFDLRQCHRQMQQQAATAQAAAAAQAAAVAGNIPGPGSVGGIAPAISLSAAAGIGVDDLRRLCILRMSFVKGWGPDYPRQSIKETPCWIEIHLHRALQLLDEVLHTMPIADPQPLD
UniProt P84022: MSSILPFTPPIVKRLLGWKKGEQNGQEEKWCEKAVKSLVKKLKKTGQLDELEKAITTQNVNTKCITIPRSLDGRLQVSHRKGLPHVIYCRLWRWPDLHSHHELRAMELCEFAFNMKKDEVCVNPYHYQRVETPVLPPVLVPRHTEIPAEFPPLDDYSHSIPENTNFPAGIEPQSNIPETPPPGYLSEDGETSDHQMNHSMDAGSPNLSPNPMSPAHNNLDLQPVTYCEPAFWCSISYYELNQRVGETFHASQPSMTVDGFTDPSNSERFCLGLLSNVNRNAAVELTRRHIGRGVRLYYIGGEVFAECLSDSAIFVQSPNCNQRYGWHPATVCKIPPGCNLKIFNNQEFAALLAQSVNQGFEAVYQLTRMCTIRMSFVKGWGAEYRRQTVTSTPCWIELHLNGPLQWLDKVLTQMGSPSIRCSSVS

Tests used:
[1] = target: T1, GST-NFATc1 (full-length) (human) (UniProt O95644); assay: pull-down; GST-pulldown from lysates of HEK293T cells co-expressing a GST-tagged and a VF-tagged protein, then immunoblotting; in some panels cells treated with TGF-β (10 ng/ml, 4 h), SB431542 (10 μM, 1 h), ionomycin 10 μM + PMA 1 μM (4 h) or CsA (10 μM, 1 h)
T1 sequence: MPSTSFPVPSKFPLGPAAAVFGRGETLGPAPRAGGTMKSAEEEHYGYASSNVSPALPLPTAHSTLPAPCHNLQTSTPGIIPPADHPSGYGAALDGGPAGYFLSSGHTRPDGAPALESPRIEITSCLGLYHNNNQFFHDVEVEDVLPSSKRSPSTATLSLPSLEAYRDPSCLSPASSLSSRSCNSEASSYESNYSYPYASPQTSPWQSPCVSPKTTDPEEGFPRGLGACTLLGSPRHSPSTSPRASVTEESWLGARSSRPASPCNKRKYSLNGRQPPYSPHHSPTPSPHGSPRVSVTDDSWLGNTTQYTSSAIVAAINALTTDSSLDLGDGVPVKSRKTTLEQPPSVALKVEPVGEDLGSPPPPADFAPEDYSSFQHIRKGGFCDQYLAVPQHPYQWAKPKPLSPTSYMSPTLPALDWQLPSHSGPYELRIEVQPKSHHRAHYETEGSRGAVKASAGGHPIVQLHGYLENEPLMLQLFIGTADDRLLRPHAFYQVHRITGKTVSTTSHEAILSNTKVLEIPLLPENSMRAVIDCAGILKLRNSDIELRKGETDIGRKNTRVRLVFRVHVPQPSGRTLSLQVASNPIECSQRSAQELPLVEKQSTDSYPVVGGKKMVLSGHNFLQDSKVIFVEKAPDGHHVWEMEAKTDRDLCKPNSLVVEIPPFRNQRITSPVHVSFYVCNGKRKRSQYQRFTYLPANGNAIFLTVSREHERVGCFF

[2] = target: T2, GST-tagged NFATc1 T1, truncation of AD and RD (1-425 amino acids) (human) (UniProt O95644); assay: as above
T2 sequence: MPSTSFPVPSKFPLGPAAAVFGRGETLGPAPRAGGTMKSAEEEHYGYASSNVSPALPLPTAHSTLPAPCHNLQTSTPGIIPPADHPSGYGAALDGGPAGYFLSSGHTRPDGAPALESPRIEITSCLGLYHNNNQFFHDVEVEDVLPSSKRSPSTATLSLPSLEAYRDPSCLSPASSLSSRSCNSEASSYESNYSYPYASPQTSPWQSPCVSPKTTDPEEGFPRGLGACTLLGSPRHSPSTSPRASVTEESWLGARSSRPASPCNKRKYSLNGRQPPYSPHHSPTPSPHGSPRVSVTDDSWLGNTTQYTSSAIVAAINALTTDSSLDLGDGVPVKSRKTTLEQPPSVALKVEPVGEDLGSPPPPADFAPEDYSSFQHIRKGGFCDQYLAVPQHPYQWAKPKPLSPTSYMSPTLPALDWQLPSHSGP

[3] = target: T3, GST-tagged NFATc1 T2, truncation of DBD and CD (426-716 amino acids) (human) (UniProt O95644); assay: as above
T3 sequence: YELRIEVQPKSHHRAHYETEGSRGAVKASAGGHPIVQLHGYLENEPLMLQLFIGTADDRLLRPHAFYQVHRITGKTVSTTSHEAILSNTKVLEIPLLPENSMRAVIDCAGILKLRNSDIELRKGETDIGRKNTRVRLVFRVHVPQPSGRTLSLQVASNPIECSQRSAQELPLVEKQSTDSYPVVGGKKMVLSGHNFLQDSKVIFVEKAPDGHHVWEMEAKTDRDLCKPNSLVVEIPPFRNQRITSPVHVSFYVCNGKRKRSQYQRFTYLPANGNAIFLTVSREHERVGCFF

[4] = target: GST-tagged SMAD4 MH2 domain truncation (319-552 amino acids) (human) (UniProt Q13485); assay: FRET or BRET; TR-FRET of single pairs: GST-SMAD4 (WT, domain truncations, truncation mutants) with VF-tagged partners; signal as fold change over empty vector controls

Substance	binding [1]	binding [2]	binding [3]	binding [4]
VF-SMAD4 (Venus-Flag-tagged SMAD4, full-length) (from UniProt Q13485 1-552)	binds	no binding	binds	–
VF-tagged SMAD3 (from UniProt P84022 1-425)	–	–	–	binds

The next lines start with the values.

binding [1]	binding [2]	binding [3]	binding [4]	Substance
binds	–	–	–	VF-tagged SMAD4 MH1 domain truncation (1-142 amino acids) (from UniProt Q13485 1-142) (domain or fragment)
no binding	–	–	–	VF-tagged SMAD4 MH2 domain truncation (319-552 amino acids) (from UniProt Q13485 319-552) (domain or fragment)
no binding	–	–	–	VF-tagged SMAD4 linker region truncation (143-318 amino acids) (from UniProt Q13485 143-318) (domain or fragment)
